# From publication PMC4336329 (PLoS ONE, 2015)
# Out of some 310,000 compounds screened, about 14,000 (4.5%) showed an effect of 50% or more. Effects have a minus sign here. Some of the results follow.
# Target: human ether-à-go-go-related gene (hERG) potassium channel (human, UniProt Q12809)
# Experiment: primary screen, population patch clamp on CHO cells stably expressing hERG
# 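Further: peak tail current of the secondary pulse compared with the same well before compound.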
# human ether-à-go-go-related gene (hERG) potassium channel, sequence (Q12809 whole entry, looked up): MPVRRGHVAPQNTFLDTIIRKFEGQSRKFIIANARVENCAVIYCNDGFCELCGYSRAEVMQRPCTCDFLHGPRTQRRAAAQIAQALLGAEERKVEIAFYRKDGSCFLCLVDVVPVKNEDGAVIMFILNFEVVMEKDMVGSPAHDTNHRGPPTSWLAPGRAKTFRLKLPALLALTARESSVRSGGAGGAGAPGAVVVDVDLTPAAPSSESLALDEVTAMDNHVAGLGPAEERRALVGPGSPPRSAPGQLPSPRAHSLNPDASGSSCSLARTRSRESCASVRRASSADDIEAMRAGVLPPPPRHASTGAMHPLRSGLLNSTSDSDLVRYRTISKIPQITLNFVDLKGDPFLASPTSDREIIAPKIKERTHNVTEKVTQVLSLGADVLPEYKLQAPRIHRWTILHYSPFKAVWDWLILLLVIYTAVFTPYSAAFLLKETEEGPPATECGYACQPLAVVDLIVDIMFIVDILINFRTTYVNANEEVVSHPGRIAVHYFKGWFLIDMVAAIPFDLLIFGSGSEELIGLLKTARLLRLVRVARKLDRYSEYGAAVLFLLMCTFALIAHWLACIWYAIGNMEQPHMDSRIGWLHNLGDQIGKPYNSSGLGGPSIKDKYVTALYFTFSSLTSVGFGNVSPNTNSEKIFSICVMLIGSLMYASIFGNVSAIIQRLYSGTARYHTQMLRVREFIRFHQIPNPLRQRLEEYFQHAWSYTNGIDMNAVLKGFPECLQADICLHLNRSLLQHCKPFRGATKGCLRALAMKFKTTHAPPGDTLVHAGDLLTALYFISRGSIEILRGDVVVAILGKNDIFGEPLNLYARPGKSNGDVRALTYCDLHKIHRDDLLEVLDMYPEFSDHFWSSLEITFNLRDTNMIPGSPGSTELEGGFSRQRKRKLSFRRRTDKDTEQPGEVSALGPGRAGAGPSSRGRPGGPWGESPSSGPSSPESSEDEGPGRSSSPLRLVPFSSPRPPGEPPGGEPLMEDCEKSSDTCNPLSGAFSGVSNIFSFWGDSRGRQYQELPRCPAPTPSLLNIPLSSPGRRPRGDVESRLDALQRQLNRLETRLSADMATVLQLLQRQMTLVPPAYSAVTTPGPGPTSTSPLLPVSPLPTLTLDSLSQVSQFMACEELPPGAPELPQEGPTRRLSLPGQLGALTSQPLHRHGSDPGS
row,SMILES,"hERG current change (%, negative = inhibition) at 10uM"
1,COc1ccc(C(c2c(N)[nH]c(=S)[nH]c2=O)c2c(N)[nH]c(=S)[nH]c2=O)cc1,15.8%
2,Cc1ccc(NC(=O)CN2C(=O)N/C(=C/c3ccc(N4CCOCC4)cc3)C2=O)cc1,3.62%
3,Cc1ccc(CN(C(=O)Cn2nnc3ccccc32)C(C(=O)NCc2ccco2)c2ccc(C)o2)cc1 (stereo not drawn),0.0258%
4,CN(CCC#N)C(=S)Nc1ccc(S(=O)(=O)N2CCOCC2)cc1,5.82%
5,O=C(NCCCN1CCCC1)Nc1ccc(F)cc1,4.71%
6,O=C(Cn1nnc2ccccc2c1=O)NCc1ccc(Cl)cc1,8.5%
7,Cc1nc2sccn2c(=O)c1S(=O)(=O)NCc1ccccc1,-2.53%
8,CCN(CC)CCC(C)OC(=O)c1ccc(O)cc1O.Cl (stereo not drawn),-21.9%
9,O=C(NCC1(N2CCCCC2)CCCCC1)c1ccc(NS(=O)(=O)c2ccccc2)cc1,-44.1%
10,CCOC(=O)CNC(=O)COc1coc(CN2CCN(c3ccc(F)cc3)CC2)cc1=O,3.38%
11,CCOc1ccccc1NC(=O)C(OC(=O)c1ccc(CC)cc1)c1ccccc1 (stereo not drawn),-3.44%
12,CC(C)[C@@H](C(=O)NC1CCCC1)N1C(=O)N2CCc3c([nH]c4ccccc34)[C@@]2(C)C1=O,-12.4%
13,CCOC(=O)c1[nH]c2ccc(Br)cc2c1NC(=O)CCN1CCC(C)CC1,-69.1%
14,Oc1ccccc1-c1cc(C(F)(F)C(F)F)nc(-c2ccccc2)n1,4.07%
15,CC(C(=O)Nc1ccccn1)c1ccccc1 (stereo not drawn),14.7%
16,CCN1CCCC1CNC(=O)CS(=O)(=O)Cc1nc(-c2ccccc2C)oc1C (stereo not drawn),-8.88%
17,Cc1ccccc1NC(=O)COC(=O)CNC(=O)c1sc2ccccc2c1Cl,13.8%
18,Cn1cc(CN2CCC(C(=O)N3CCCCC3)CC2)c(-c2ccccc2F)n1,4.1%
19,COc1ccc2c(c1)c(=O)oc1cc3occ(C(C)(C)C)c3cc12,-0.705%
20,Cc1ccc(NC(=S)N2CCN(C(=O)C3CCCO3)CC2)cc1 (stereo not drawn),17.8%
21,CC(=O)OCc1c(COC(C)=O)[n+](=O)c2ccccc2n1[O-],-17.9%
22,O=C(Oc1cccnc1)c1ccccc1[N+](=O)[O-],-5.23%
23,COC(=O)/C=C/S(=O)(=O)c1ccc(NC(C)=O)cc1,-3.85%

row,SMILES,"hERG current change (%, negative = inhibition) at 10uM"
1,CCOc1cc(S(=O)(=O)n2cnc(C)c2)ccc1Cl,-8.24%
2,c1ccc(CN=C2Nc3ccccc3CS2)nc1,18.6%
3,COc1cc(O)oc1C=Nc1ccc(Oc2ccccc2)cc1,9.26%
4,CC(OC(=O)Cc1c[nH]c2ccccc12)C(=O)Nc1ccccc1F (stereo not drawn),-11.7%
5,COc1ccc(CC(=O)OCC(=O)Nc2cc(S(=O)(=O)N3CCOCC3)ccc2N2CCCC2)cc1,-20.9%
6,CC(=O)c1c(-c2ccccc2)c2ccccc2[nH]c1=O,30.3%
7,O=C(NCc1cccc(Br)c1)C1CC(c2ccccc2C(F)(F)F)=NO1 (stereo not drawn),-17.7%
8,Cn1c(N)c(C(=O)COC(=O)c2ccccn2)c(=O)n(C)c1=O,8.25%
9,COc1ccc(CCN(C)C(=O)c2ccc(COc3ccccc3)o2)cc1OC,-3.91%
10,CCc1cccc2c(C(=O)CSc3nnc(-c4ccncc4)n3C)c[nH]c12,1.11%
11,COc1ccc(C)cc1-n1c(SCC(=O)Nc2cc(C)on2)nc2sc(C)c(C)c2c1=O,-2.19%
12,CC(C)C(=O)N1CCN(c2ccc(NC(=O)c3ccc([N+](=O)[O-])o3)cc2)CC1,-12.9%
13,O=C1CCC(c2ccccc2)=NN1Cc1c(F)cccc1Cl,1.33%
14,Cc1cccc(NC(=O)C(=O)N/N=C/c2ccncc2)c1,-12.3%
15,CSc1ccccc1NC(=O)N1CCCC(C(=O)c2ccc3c(c2)OCO3)C1 (stereo not drawn),-39.8%
16,O=C(Oc1ccc(-c2nnco2)cc1)N(c1ccccc1)c1ccccc1,-28.9%
17,CCN(CC)CCN1C(=O)C(O)=C(C(=O)c2ccco2)C1c1ccccn1 (stereo not drawn),5.88%
18,CCOc1ccc(OCCOC(=O)CNC(=O)c2ccc(Cl)cc2Cl)cc1,12.2%
19,CCCn1c(SCC(=O)NCc2ccco2)nc2c1c(=O)n(C)c(=O)n2C,-18.6%
20,COc1ccc(N(C)S(=O)(=O)c2cccc(C(=O)Nc3nnc(C4CC4)s3)c2)cc1,24.5%
21,O=C(CN1C(=O)CC(c2ccccc2)Sc2ccccc21)NCC1CCCO1 (stereo not drawn),-13.3%
22,COc1ccc(-c2csc(Nc3cc(C)ccn3)n2)cc1C,12.4%
23,S=c1[nH]c2ccc(Cl)cc2s1,21.1%

row,SMILES,"hERG current change (%, negative = inhibition) at 10uM"
1,CCn1cc(CN2CCc3c([nH]c4ccccc34)C2c2cccc(OC)c2)c(C)n1 (stereo not drawn),-57.3%
2,Cc1ccc(CNC(=O)CCOc2ccc(C(C)(C)C)cc2)cc1,5.62%
3,COc1ccc(CNC(=O)COc2ccc(C)nc2[N+](=O)[O-])cc1,-9.16%
4,CCN(CCN1CCCC1)C(=O)c1cc(COc2ccccc2SC)on1,-32.1%
5,COc1cccc(C(=O)N2CCN(Cc3ccccc3Br)CC2)c1.O=C(O)C(=O)O,-5.57%
6,Cc1cc(/C=N/NS(=O)(=O)c2ccc(F)c(Cl)c2)no1,6.46%
7,Cn1c2ccc(F)cc2c2ncn(Cc3ccccn3)c(=O)c21,-16.3%
8,O=C(CN1C(=O)c2ccccc2S1(=O)=O)NC(Nc1ccccc1F)C(Cl)(Cl)Cl (stereo not drawn),-5.35%
9,Cc1ccc(NC(=O)C2C3C=CC4(CN(Cc5cccnc5)C(=O)C24)O3)cc1 (stereo not drawn),7.51%
10,N/C(Cc1ccccc1)=N\OC(=O)c1cccc2ccccc12,25.1%
11,COC(=O)c1ccc(NC(=S)N2CCN(CCO)CC2)cc1,13.7%
12,O=C(NC1CC1)C(Cc1ccccc1)NS(=O)(=O)c1ccccc1F (stereo not drawn),22.7%
13,O=C(CSc1nc2ccccc2nc1N1CCCCC1)Nc1ccc(F)cc1,-2.86%
14,Cc1cc(OCCCCCNCCO)ccc1Cl,-18.2%
15,Fc1ccccc1/C=N/Nc1ccc(Cl)nn1,-5.48%
16,COC(=O)c1[nH]c(=O)c2ccccc2c1O,19.4%
17,CN(C)CC1CCCCC1OC(=O)Cc1ccc(Cl)c([N+](=O)[O-])c1 (stereo not drawn),-8.77%
18,CC12CCC(C/C1=N\OC(=O)c1c(F)cccc1F)C2(C)C (stereo not drawn),-0.495%
19,CNC(=S)Nc1ccc(OCc2ccccc2)cc1,7.41%
20,COc1cccc2c1OCC/C2=N\NC(=O)COc1ccccc1C,-19.3%
21,COc1ccc(C(C)(C)C)cc1NC(=O)CCNC(=O)c1ccco1,-4.87%
22,c1nc2n(n1)C1=C(CCCC1)C1(CCCCC1)N2,20.7%
23,C#CCN(C(=O)Nc1ccccc1)c1ccccc1,9.62%

row,SMILES,"hERG current change (%, negative = inhibition) at 10uM"
1,C/C(CCC(C)C)=N\NS(=O)(=O)c1ccc(C)c([N+](=O)[O-])c1,-16.6%
2,Cc1cc(Br)c(NC(=O)COC(=O)C2CC2C)c(Br)c1 (stereo not drawn),-3.06%
3,Cc1c(C(=O)O)oc2c(F)cccc12,14.4%
4,Cc1ccc(NCCC(=O)c2cccs2)cc1C,0.601%
5,CCOC(=O)c1c(C)c2c(=O)[nH]cnc2n1-c1ccccc1,12.9%
6,Cc1ccccc1-n1c(C)nc2ccccc21,-5.01%
7,CC(=O)N1CCN(C(=S)NCc2ccccc2)CC1,6.27%
8,CC1=CCC2C(=O)N(c3cccc(C(=O)Nc4ccccc4Cl)c3)C(=O)C2C1 (stereo not drawn),20.9%
9,O=C(NCc1ccco1)C(c1ccco1)N(C(=O)Cn1nnc2ccccc21)c1ccc2c(c1)CCC2 (stereo not drawn),-27%
10,COc1cccc(CC2(CO)CCCN(Cc3cn[nH]c3-c3ccccc3)C2)c1 (stereo not drawn),-49.9%
11,CO/N=C/C(C#N)=C/c1ccc(OC)c(OC)c1,15%
12,CCOC(=O)CN1N=C(/C=C/c2ccccc2)CCC1=O,-17.2%
13,COc1ccccc1CN1CC(C(=O)N(C)Cc2ccncc2C)CCC1=O (stereo not drawn),-6.48%
14,O=C(c1ccccc1)c1cc2ccccc2o1,-1.57%
15,COc1ccc(-n2nc3c(c2NC(=O)c2ccc(Br)cc2)CS(=O)C3)cc1 (stereo not drawn),-50.8%
16,Cc1nc2ncnn2c(C)c1CCC(=O)NCCCN1CCN(c2cccc(Cl)c2)CC1,-37.7%
17,COc1cc(/C=C2\SC(=S)N(N3CCOCC3)C2=O)ccc1O,-2.59%
18,O=C(NC1CCCCC1)Oc1cc2oc(=O)sc2cc1Cl,1.4%
19,COc1ccc(-c2noc(CSc3nnc(Cc4ccccc4)n3-c3cccc(C)c3)n2)cc1OC,-11.1%
20,O=C(NNC(=O)C1COc2ccccc2O1)c1ccccc1 (stereo not drawn),-1.85%
21,CC(C)C(NC(=O)c1ccccc1F)C(=O)NCCc1ccccn1 (stereo not drawn),28%
